Among the data in PubChem BioAssay AID1508642 (National Center for Advancing Translational Sciences (NCATS), 2021) are activity change, negative = cytotoxicity values, retold here.

Screen size: about 43,000 compounds; about 200 (0.47%) were called active. Roughly 12% stayed inconclusive and do not appear here. The call rests on the fitted dose curve; in most records, active means well fitted cell-killing curve with a large enough effect; inconclusive means small, poorly fitted or top-dose-only effect, or effect the other way; inactive means flat fitted curve, though single readings scatter. This is one part of the list.
On the % scale 0 is the no-effect control and ±100 the full control effect.

The assay is described as follows: Cell viability qHTS assay in S16 Pmp22-F2sN cells. Further: nearly all actives have a fitted effect of over 65% in size. The conditions noted are these: S16 Pmp22-F2sN Schwann cells (luciferase reporters placed in the Pmp22 gene) viability, CellTiter-Glo, 24 h; at 57.5 µM (top of the series). From the text:
Assay Provider: Jim Inglese Ph.D. National Center for Advancing Translational Science, National Institutes of Health, Rockville, MD CMT is a heterogeneous group of neurological disorders that affect approximately 1 in 2,500 people. In particular, the most common form of CMT, CMT1A is genetically linked to the duplication of the PMP22 gene which leads to Schwann cell overexpression, thus manifesting itself as a typical case of dose-sensitive diseases. To identify small molecule compounds that can mediate the expression of PMP22 we developed a phenotypic assay screening strategy by utilizing genome editing techniques to construct Schwann cell lines containing novel reporter technology to monitor the transcriptional or translational regulation of PMP22. For high sensitivity we use a bioluminescent reporter system embedded in the 3' UTR of the PMP22 gene (S16(c9) Pmp22-F2sN) to identify compounds that inhibit gene expression. […] We can further discriminate the effect of all transcriptionally active molecules on PMP22 translation or stability with an assay that incorporates a short NLuc peptide (HiBiT) at the C-terminus of expressed PMP22 (S16(f8) PMP22-HiBiT) allowing alpha complementation and luminescence detection of membrane-associated PMP22 protein. These assays were screened against the NCATS Sytravon Library Collection. Miniaturization of these assays to 1536-well plate format for quantitative high throughput screening (qHTS) yielded rich data sets immediately from the qHTS assay (S16(c9) Pmp22-F2sN), when compared with data from a cell viability assay (Cell TiterGlo) to identify compounds that decreased the output signals through cellular toxicity to streamline the selection process of actives for subsequent characterization using the HiBiT assay (S16(f8) PMP22-HiBiT).
Cell viability assay in S16 Pmp22-F2sN cells PROTOCOL TABLE (format as described by Inglese J, Shamu CE and Guy RK. 2007) SEQUENCE No. (e.g., 1, 2, 3, etc.); […] (e.g., Cells, Incubation, Reagent, etc.); VALUE and DESCRIPTION. 1. Cells. Add 500-1,000 cells in 4 uL in growth media (DMEM High Glucose, No Phenol Red media + 10% heat-inactivated FBS + 1% Pen/Strep supplemented media) per well into Greiner 1536-well white/solid bottom high base, TC-treated plates. 2. Compounds. Library compounds and controls added at 23nL per well, transferred by Pin Tool. 3. Incubation. Incubate plates at 37C, 5% CO2, 95% RH for 24 h. 4. Reagent. Add 3uL CellTiter-Glo per well of Greiner 1536-well plates. 5. Incubation. Incubate plates at room temperature for 15 min., protect from light. 6. Detector. FLuc luminescence measured using CCD-based camera (Viewlux). NOTES (numbers refer to Sequence numbers above; values are from representative experiments) 6. Luminescence Read: Clear filter; Exposure = 1 sec, Gain = High, Speed = Slow, Binning = 2X REFERENCES: 1. Inglese J, Shamu CE and Guy RK, Reporting data from high throughput screening of small molecule libraries, Nature Chemical Biology, 2007, 3(8): 438-441. doi.org/10.1038/nchembio0807-438 2. Yasgar A, Shinn P, Jadhav A, Auld DS, Michael S, Zheng W, Austin CP, Inglese J and Simeonov A, Compound Management for Quantitative High-Throughput Screening. J. Assoc. Lab. Auto., 2008, 13: 79-89. doi: 10.1016/j.jala.2007.12.004
`O=c1c2ccccc2nc(/C=C\c2ccc(F)cc2)n1-c1ccccc1F`: the activity change, negative = cytotoxicity is inactive: -25.2%. With `CC(=O)NS(=O)(=O)c1ccc(NC(=O)c2cccn(Cc3ccc(Cl)cc3)c2=O)cc1`, the activity change, negative = cytotoxicity is inactive: -3.92%. On to `Cc1cccc(NC(=O)Cn2cc(C(=O)c3ccccc3)c3ccccc32)c1`, for which the activity change, negative = cytotoxicity is inactive: -20.5%.

On to `O=S1(=O)N(Cc2ccccc2)CCCN1Cc1cccc(Cl)c1`, for which the activity change, negative = cytotoxicity is inactive: -3.33%. The result for `Cc1ccc(Cn2cccc(C(=O)Nc3cc([N+](=O)[O-])ccc3C)c2=O)cc1` reads inactive: 11.6%.

Regarding `O=C(COc1cccc(Cl)c1)N1CCN(CCc2ccncc2)CC1`, the activity change, negative = cytotoxicity was inactive: 13.2%.

`O=C(COc1ccccc1Cl)N1CCN(CCc2ccncc2)CC1`: the activity change, negative = cytotoxicity was inactive: 0.167%. The same measure for `Cc1cccc(-n2c(/C=C/c3cn(C)c4ccccc34)nc3ccccc3c2=O)c1`: inactive: 12.5%; for `Cc1cc(NC(=O)c2cccn(Cc3cccc(Cl)c3)c2=O)no1`: inactive: 25.5%. The same measure for `Cc1ccc(-c2nc(CN3C(=O)CN=C(c4ccccc4)c4cc(Cl)ccc43)c(C)o2)cc1`: inactive: -5.67%; for `COc1ccc(/C=C/c2nc3ccccc3c(=O)n2-c2ccc(C)cc2)cc1O`: inactive: 1.9%. The result for `O=C(Nc1ccon1)c1cccn(Cc2ccccc2)c1=O` reads inactive: -3.43%. Consider `O=C(Nc1ccon1)c1cccn(Cc2cccc(Cl)c2)c1=O`, for which the activity change, negative = cytotoxicity was inactive: 1.06%. The same measure for `Cc1oc(-c2ccc(Cl)cc2)nc1CN1C(=O)CN=C(c2ccccc2)c2ccccc21`: inactive: -15.1%; for `O=c1[nH]c2ccccc2c(=O)n1-c1ccc(Cl)c(Cl)c1`: inactive: -6.36%; for `O=C1CC(c2ccc(Br)cc2)c2c(c3ccccc3oc2=O)O1` (centres undefined): inactive: -9.81%. `CCC12CN3CC(CC)(CN(C1)C3c1ccccn1)C2=O` (centres undefined): the activity change, negative = cytotoxicity is inactive: -0.613%.

On to `CC(=O)N1CC(=O)Nc2ccc(F)cc2C1c1ccccc1` (centres undefined), for which the activity change, negative = cytotoxicity was inactive: -4.99%. The result for `Cc1cc(C)cc(-n2c(=O)[nH]c3ccccc3c2=O)c1` reads inactive: 1.67%; that for `CCCSc1nc2ccccc2c(=O)n1-c1ccccc1OC`, inactive: 4.53%; that for `Cc1c(C(c2ccc(F)cc2)c2c(O)c3ccccc3oc2=O)c(=O)n(-c2ccccc2)n1C` (centres undefined), inactive: -5.04%. The result for `O=C(COc1ccc(Cl)cc1)Nc1ccc(Cl)cc1C(=O)c1ccccc1` reads inactive: -2.73%. Regarding `Cc1nnc(NC(=O)c2cccn(Cc3ccccc3F)c2=O)s1`, the activity change, negative = cytotoxicity is inactive: 8.03%.

`O=C1CC(c2c(F)cccc2Cl)c2c(c3ccccc3oc2=O)O1` (centres undefined): the activity change, negative = cytotoxicity is inactive: -4.36%. `Cc1ccc(-n2c(/C=C/c3ccc(Br)s3)nc3ccccc3c2=O)cc1C`: the activity change, negative = cytotoxicity was inactive: -14.5%. The same measure for `Cc1nnc(NC(=O)c2cccn(Cc3ccc(Cl)cc3)c2=O)s1`: inactive: -0.998%. On to `Cc1cc(C)cc(-n2c(/C=C/c3cccc(F)c3)nc3ccccc3c2=O)c1`, for which the activity change, negative = cytotoxicity is inactive: 3.57%. Turning to `COc1ccc(NC(=O)CN2C(=O)C(C)N=C(c3ccccc3F)c3cc(Cl)ccc32)c(OC)c1` (centres undefined), the activity change, negative = cytotoxicity was inactive: -17.6%. The result for `CSc1ccc(C(c2c(O)c3ccccc3oc2=O)c2c(C)n(C)n(-c3ccccc3)c2=O)cc1` (centres undefined) reads inactive: -0.189%. The result for `CN1CCN(c2csc3ccc(F)cc3c2=O)CC1` reads inactive: 4.37%; that for `N#Cc1cc2c(nc1SCC(=O)Nc1cccc(F)c1)C1CCN2CC1`, inactive: -15.5%; that for `CCOc1ccc(-n2c(/C=C/c3ccccc3)nc3ccccc3c2=O)cc1`, inactive: -25.1%. Regarding `O=C(Nc1ccc2c(c1)OCCO2)c1cccn(Cc2cccc([N+](=O)[O-])c2)c1=O`, the activity change, negative = cytotoxicity was inactive: -8.56%. Regarding `N#Cc1cc([N+](=O)[O-])ccc1NC(=O)c1cccn(Cc2cccc(F)c2)c1=O`, the activity change, negative = cytotoxicity was inactive: 4.43%. On to `CCCCc1nc2ccccc2c(=O)n1-c1cccc(OC)c1`, for which the activity change, negative = cytotoxicity was inactive: 19.2%. The result for `Cc1ccc(NC(=O)CN2C(=O)CN=C(c3ccccc3)c3ccccc32)c(C)c1` reads inactive: 6.92%. The same measure for `COc1ccc(-c2nn3c(=O)cc(CN4CCN(C(=O)COc5ccc(F)cc5)CC4)nc3s2)cc1`: inactive: -3.31%; for `Cc1oc(-c2ccc(Cl)cc2)nc1CN1C(=O)CN=C(c2ccccc2)c2cc(Cl)ccc21`: inactive: -4.68%. The same measure for `CCc1ccc(OCC(=O)N2CCN(CCc3ccccn3)CC2)cc1`: inactive: 5.64%; for `COc1ccccc1-n1c(/C=C/c2ccccc2)nc2ccccc2c1=O`: inactive: -0.365%; for `Cn1c(=O)n(C)c2cc(CNCCc3ccccc3)ccc21`: inactive: 0.328%. Turning to `Cc1ccccc1Cn1cccc(C(=O)Nc2cc(Cl)ccc2C#N)c1=O`, the activity change, negative = cytotoxicity was inactive: 8.25%. The same measure for `Cc1cc(NC(=O)c2cccn(Cc3cccc([N+](=O)[O-])c3)c2=O)no1`: inactive: -10.2%; for `CCC(=O)N1CC(=O)Nc2ccc(C)cc2C1c1ccc(F)cc1` (centres undefined): inactive: 1.32%.
